# Source: PubChem BioAssay AID624417 (National Center for Advancing Translational Sciences (NCATS), 2012)
# About 6,400 (1.6%) of roughly 410,000 compounds were called active. This list was built around the results that the source calls inconclusive (neither active nor inactive); the mix of calls is not that of the screen. Calls come from the whole dose curve; as a rule, active = well fitted inhibition curve with a large enough effect; inconclusive = small, poorly fitted or top-dose-only effect; inactive = no such curve, though single readings can be large or run the other way. No potency is given beside an inconclusive call; the fits are too rough.
# Molecular target: Glucagon-like peptide 1 receptor (Homo sapiens) (UniProt P43220)
# Sequence of UniProt P43220 (P43220 whole entry, looked up): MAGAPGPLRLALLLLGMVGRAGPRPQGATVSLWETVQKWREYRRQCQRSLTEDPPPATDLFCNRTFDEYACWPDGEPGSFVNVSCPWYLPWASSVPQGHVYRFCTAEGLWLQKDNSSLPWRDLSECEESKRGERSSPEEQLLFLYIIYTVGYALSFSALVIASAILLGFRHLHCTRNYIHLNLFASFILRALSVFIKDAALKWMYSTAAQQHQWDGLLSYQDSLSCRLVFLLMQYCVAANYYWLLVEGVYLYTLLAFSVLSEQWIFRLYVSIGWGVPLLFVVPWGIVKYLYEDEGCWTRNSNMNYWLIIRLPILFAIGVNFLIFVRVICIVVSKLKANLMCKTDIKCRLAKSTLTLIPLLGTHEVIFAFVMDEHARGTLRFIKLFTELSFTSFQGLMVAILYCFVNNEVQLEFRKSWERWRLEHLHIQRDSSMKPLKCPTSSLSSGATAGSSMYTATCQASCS
# Test: qHTS of GLP-1 Receptor Inverse Agonists (Inhibition Mode); note: nearly all actives have a fitted effect of over 55% in size
# Conditions: HEK293 GLP-1R CRE-luciferase, luminescence, 24 h, GLP-1R form is constitutively active; series mostly up to 38.3 µM
# Summary of the method: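 Stable HEK293 clone (constitutively active GLP-1R + cAMP-response luciferase); 200 cells/uL plated, 12 h pre-culture, compound 24 hr, 37 deg C/5% CO2; detection reagent 12 min RT; luminescence.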
# Potency is the fitted concentration of half-maximal effect; tags give direction and shape of the fitted curve.
row,Structure (SMILES),Potency
1,CCOC(=O)[C@]12CCCC=C1N(Cc1ccccc1)C(=O)[C@H](CC(=O)N1CCN(C(=O)C3CC3)CC1)C2,"inconclusive [inhibitor, single point]"
2,CC(C)(C)c1ccc(CSc2nnc(-c3ccccc3NC(=O)c3ccccc3)o2)cc1,inactive
3,COc1cc(/C=C/C(=O)N2CCC=CC2=O)cc(OC)c1OC,"inconclusive [inhibitor, single point]"
4,COc1ccc(-c2cnnc(N/N=C/c3ccc(-c4ccc([N+](=O)[O-])cc4)o3)n2)cc1,"inconclusive [inhibitor, full curve, poor fit]"
5,CCN(C(=O)Cn1cc(S(=O)(=O)Cc2ccccc2Cl)c2ccccc21)c1ccccc1,"inconclusive [inhibitor, partial curve, poor fit]"
6,Cc1ccc(C)c(N2CCN(C(=O)Cn3c(-c4cccs4)cc4ccccc43)CC2)c1,"inconclusive [inhibitor, partial curve, poor fit]"
7,CN(C)c1ccc2nc3ccc(=[N+](C)C)cc-3sc2c1,"inconclusive [inhibitor, partial curve, poor fit]"
8,Cc1n[nH]c(C)c1S(=O)(=O)N1CCCC(C(=O)Nc2ccc(Cl)cc2)C1 (stereo unspecified),"inconclusive [inhibitor, single point]"
9,CC(=O)Nc1ccc(CCCCc2ccccc2)cc1,"inconclusive [inhibitor, single point]"
10,Cc1ccc(C(=O)NCCC2=CCCCC2)cc1S(=O)(=O)N1CCCCC1,"inconclusive [inhibitor, partial curve, poor fit]"
11,Cc1ccc(NC2=C(C(=O)c3ccccc3)N(C)S(=O)(=O)c3ccccc32)cc1,"inconclusive [inhibitor, partial curve, poor fit]"
12,C/C(CCN1CCc2nc(-c3ccccc3)c(-c3ccccc3)cc2C1)=N\O[C@@H](C)c1cc(-c2c(C)cc(C)cc2C)no1,"inconclusive [inhibitor, partial curve, poor fit]"
13,CCOC(=O)N1CCN(S(=O)(=O)c2ccc(OCC)c3ccccc23)CC1,"inconclusive [inhibitor, single point]"
14,CCOC(=O)c1ccc(NC(=O)C(CC)Sc2nc3ncccc3o2)cc1 (stereo unspecified),inactive
15,CC[C@H](C)[C@@H](CN[C@H](C)CNC)NCCC(c1ccccc1)c1ccccc1,"inconclusive [inhibitor, partial curve, poor fit]"
16,O=C(NCCc1cccc(C(F)(F)F)c1)C1CCC(=O)N(Cc2ccc(Cl)cc2)C1 (stereo unspecified),"inconclusive [inhibitor, single point]"
17,COc1ccc2c(CN(Cc3ccccc3)Cc3ccccc3)cc(=O)oc2c1,"inconclusive [inhibitor, single point]"
18,CCC1(CC)Cc2ccccc2C(N)=C1C#N,"inconclusive [inhibitor, single point]"
19,CN(Cc1ccc(F)cc1)Cc1nc(-c2ccccc2)no1,"inconclusive [inhibitor, single point]"
20,COc1cccc(C(NC(C)=O)c2nc(-c3cccc(C#N)c3)cs2)c1 (stereo unspecified),inactive
21,CN(C)c1ccc(CNC(=O)C2CCN(S(=O)(=O)c3ccc4c(ccn4C)c3)CC2)cc1,"inconclusive [inhibitor, single point]"

row,Structure (SMILES),Potency
1,CCCc1cc(=O)[nH]c(SCC(=O)NN(c2ccccc2)c2ccccc2)n1,"inconclusive [inhibitor, single point]"
2,O=C(CCc1nnc(CCCCc2ccccc2)o1)NCc1cc(F)ccc1F,"inconclusive [inhibitor, single point]"
3,Cc1cccn2c(=O)c3cc(C(=O)NC4CCCC4)n(C)c3nc12,"inconclusive [inhibitor, full curve, poor fit]"
4,O=C(NCc1ccc2c(c1)OCO2)Nc1ccc(F)cc1,"inconclusive [inhibitor, partial curve, poor fit]"
5,CC(C)Oc1ccc(CNC(=O)c2ccc(NC(=O)N3CCSc4ncccc43)cc2)cc1,inactive
6,Cc1ccc(NCc2nnc(SCC(=O)c3ccccc3)n2Cc2ccco2)c(C)c1,"inconclusive [inhibitor, single point]"
7,Cc1ccc([C@H]2C[C@@H](O)[C@H](n3cc(COC(=O)c4ccccc4)nn3)CN2C(=O)c2cccs2)cc1,"inconclusive [inhibitor, partial curve, poor fit]"
8,O=[N+]([O-])c1cccc2ccc(/C=C/c3ccc(F)cc3)nc12,"inconclusive [inhibitor, partial curve]"
9,O=C(NC(NC1CCS(=O)(=O)C1)C(Cl)(Cl)Cl)c1ccc(Br)cc1 (stereo unspecified),"inconclusive [inhibitor, partial curve, poor fit]"
10,CCOC(=O)CSc1nnc(-c2ccccc2)c(-c2ccccc2)n1,"inconclusive [inhibitor, partial curve, poor fit]"
11,CON(C)S(=O)(=O)c1cccc(C(=O)Oc2ccc(N(C)S(=O)(=O)c3ccccc3)cc2)c1,inactive
12,O=C(CSc1nn(-c2ccc(Cl)cc2)c(=S)s1)NCC1CCCO1 (stereo unspecified),"inconclusive [inhibitor, single point]"
13,COc1ccc(NC(=O)c2cc(Br)c(Br)s2)cn1,"inconclusive [inhibitor, single point]"
14,COc1ccc2nc(NC(=O)C3CCN(S(=O)(=O)c4cccs4)CC3)sc2c1,"inconclusive [inhibitor, single point]"
15,COCCCC1CCN(C(=O)C2CCC(=O)N(CCCc3ccccc3)C2)CC1 (stereo unspecified),inactive
16,Clc1ccc(Nc2nc(-c3cccs3)cs2)nc1,"inconclusive [inhibitor, single point]"
17,CCOC(=O)c1c(S(=O)(=O)NCC(=O)Nc2ccc(C)c(Cl)c2)c(C)n(C)c1C,inactive
18,NCC(c1ccccc1Cl)c1c[nH]c2ccccc12 (stereo unspecified),"inconclusive [inhibitor, partial curve, poor fit]"
19,O=C(NNC(=O)C(c1ccccc1)c1ccccc1)c1ccccc1O,"inconclusive [inhibitor, partial curve, poor fit]"
20,CN(CC#CC(O)(c1ccccc1)c1ccccc1)C(C)(C)C,"inconclusive [inhibitor, partial curve, poor fit]"
21,CC1=NN(C(=O)c2ccc(Cn3cc([N+](=O)[O-])cn3)cc2)C(O)(C(F)(F)F)C1 (stereo unspecified),"inconclusive [inhibitor, single point]"

row,Structure (SMILES),Potency
1,COc1ccc(/C(C)=N/NC(=O)CNC(=O)CCc2ccccc2)c(OC)c1,"inconclusive [inhibitor, full curve]"
2,Cc1cccc(OCC(=O)O/N=C(\N)Cc2ccc(Cl)cc2)c1,"inconclusive [inhibitor, single point]"
3,CN(CC(=O)Nc1cccc(F)c1)C(=O)c1ccc(C(=O)c2ccccc2)cc1,"inconclusive [inhibitor, partial curve, poor fit]"
4,CCOCCCNC(=S)N1CCCN(c2nc3c(C)c(C)ccc3cc2C#N)CC1,"inconclusive [inhibitor, partial curve, poor fit]"
5,CCOC(=O)[C@H]1[C@H]2COc3ccc(C)cc3[C@@H]2N2C(=O)c3cc(OC)c(OC)cc3NC(=O)[C@@]12C,inactive
6,CC[C@H](C)/C=C(C)/C=C/C(=O)Cc1cc(O)c(C)c(O)c1C=O,"inconclusive [inhibitor, single point]"
7,CC(=O)c1c(C)[nH]c(C(=O)NCC2CCCCC2)c1C,"inconclusive [inhibitor, single point]"
8,CC1Nc2ncnc(N3CCN(c4ccccc4)CC3)c2N(Cc2ccc(Cl)cc2)C1=O (stereo unspecified),active: 10 µM
9,CCCC(=O)NC(c1ccco1)c1cc(Cl)c2cccnc2c1O (stereo unspecified),"inconclusive [inhibitor, partial curve, poor fit]"
10,O=c1c2ccccc2sn1-c1ccc(S(=O)(=O)N2CCCCC2)cc1,inactive
11,c1ccc(-c2nc(N3CCOCC3)cc(N3CCOCC3)n2)cc1,"inconclusive [inhibitor, partial curve]"
12,COc1cc(NC(=O)NCC2CCN(Cc3ccccc3F)CC2)cc(OC)c1,"inconclusive [inhibitor, partial curve, poor fit]"
13,O=C(Nc1ccc(Cl)c(Cl)c1)c1ccccc1,"inconclusive [inhibitor, single point]"
14,Cc1cc(C)c2c(c1)-c1c(ssc1=S)C(C)(C)N2C(=O)CN1C(=O)c2ccccc2C1=O,inactive
15,Cc1ccccc1Cn1nnc2c(=O)[nH]c(C3CCN(C(=O)c4ccccc4)CC3)nc21,inactive
16,Cc1ccc(C)c(S(=O)(=O)N2CCN(C(=O)c3ccc4ccccc4n3)CC2)c1,"inconclusive [inhibitor, single point]"
17,CC(=O)C1=C(C)NC(SCC(=O)c2ccc(Cl)c(Cl)c2)=C(C#N)C1c1ccco1 (stereo unspecified),"inconclusive [inhibitor, single point]"
18,COCCNC(=S)N1CCC(C(=O)c2ccc(Cl)cc2)CC1,"inconclusive [inhibitor, partial curve, poor fit]"
19,CC(=O)C1CCCN(C(=O)c2ccc3oc(CCc4ccccc4)nc3c2)C1 (stereo unspecified),"inconclusive [inhibitor, single point]"
